# Data as given in PubChem BioAssay AID1508642 (National Center for Advancing Translational Sciences (NCATS), 2021).
# The whole screen tested about 43,000 compounds, of which about 200 (0.47%) were called active. Another 12% or so got no clear call; they are omitted. Calls follow the shape of the dose curve; as a rule, active = well fitted cell-killing curve with a large enough effect; inconclusive = small, poorly fitted or top-dose-only effect, or effect the other way; inactive = flat fitted curve, though single readings scatter. Some of the results follow.
# Experiment: Cell viability qHTS assay in S16 Pmp22-F2sN cells; also: nearly all actives have a fitted effect of over 65% in size
# Settings: S16 Pmp22-F2sN Schwann cells (luciferase reporters placed in the Pmp22 gene) viability, CellTiter-Glo, 24 h; series mostly up to 57.5 µM; activity change, negative = cytotoxicity: at the top concentration
# Procedure, shortened: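 S16 Schwann cells carrying the Pmp22-F2sN reporter, seeded in 1536-well format, were exposed to library compounds for 24 h at 37C. Viability was read as CellTiter-Glo luminescence after 15 min at room temperature.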
# % is scaled to controls: 0 for no effect and ±100 for the full control effect.
row,SMILES,"activity change, negative = cytotoxicity"
1,COC(=O)c1c(NC(=O)COc2ccc(Cl)cc2C)sc2c1CCCCC2,inactive: 3.33%
2,COc1ccc(OC)c(NC(=O)CSC2=Nc3ccccc3C3=NC(CCC(=O)NC4CCCCC4)C(=O)N23)c1 (centres undefined),inactive: 0.969%
3,CSc1ncc(C(=O)N2CCN(c3ccc(Cl)cc3)CC2)c(C)n1,inactive: 5.11%
4,CCc1nn(CC(=O)NCCCN2CCN(C)CC2)c(=O)c2cc3occc3n12,inactive: 0.287%
5,O=C(Cc1ccc(F)cc1)Nc1cccc(-c2nc3cccnc3s2)c1,inactive: 18.7%
6,Cc1cccc(N2CCN(C(=O)CCCn3ncn4c(cc5occc54)c3=O)CC2)c1C,inactive: -5.56%
7,CCOc1cc(CNCCSc2nnnn2C)cc(Cl)c1OCc1ccc(Cl)cc1,inactive: -12.5%
8,CCc1ccc(NC(=O)CCc2c(C)n(C)c3cc(-c4ccccc4C)nn3c2=O)cc1,inactive: 7.56%
9,Cc1ccc(CCNS(=O)(=O)c2ccc3c(c2)CCN3C(=O)CCC(=O)O)cc1,inactive: 1.85%
10,COc1ccc(CCNC(=O)C2=C(C)C(=O)OC23CCCCC3)c(OC)c1,inactive: -3.26%
11,Cc1ccc(CNC(=O)c2cc(Sc3ccc(F)cc3F)nc3ccccc23)cc1,inactive: -0.442%
12,CCC(C(=O)N(C)Cc1ccccc1)n1nc(C)c2sc3ccccc3c2c1=O (centres undefined),inactive: 8.14%
13,COc1ccc(NC(=O)C2CCCN(S(=O)(=O)c3ccc4[nH]c(=O)ccc4c3)C2)cc1OC (centres undefined),inactive: 0.549%
14,CC(=O)N1CCCC1c1nc2ccccc2n1Cc1cc(C)ccc1C (centres undefined),inactive: 11.8%
15,CCOC(=O)N1CCN(S(=O)(=O)N2CCCC(C(=O)NCc3ccccc3OC)C2)CC1 (centres undefined),inactive: -1.31%
16,Cc1ccc2ccc3cc(C(=O)Nc4ccc(C)c(F)c4)nc3c2[nH]1,inactive: -2.04%
17,CCOC(=O)c1ccc(CN(Cc2ccc(F)cc2)S(=O)(=O)c2cc(C(=O)Nc3ccccc3CC)ccc2F)cc1,inactive: -10.7%
18,O=C(Nc1ccccc1)N(Cc1cccs1)c1ccc(Cl)cc1,inactive: 19.1%
19,Cc1ccc(-n2c(=O)[nH]c3sc4c(c3c2=O)CCCC4)cc1,inactive: 5.24%
20,O=S(=O)(c1ccc(Cl)cc1)c1nnn2c1nc(NCc1ccccc1)c1sccc12,inactive: 21.8%
21,CC(=O)N(Cc1cccnc1)c1nc2cc(C)cc(C)c2s1,inactive: -11%
22,CCOc1ccc(NC(=O)CCc2c(C)nc3c(c(C)nn3-c3ccccc3)c2C)cc1,inactive: 13.8%
23,Cc1ccc(S(=O)(=O)n2nc(C)c(S(=O)(=O)N3CCCCC3)c2C)cc1,inactive: 10.8%
24,CCc1ccc(CN(Cc2ccco2)C(=O)c2ccc(C)cc2)cc1,inactive: -0.0032%
25,CCCCN(CC)C(=O)C1CCC(CNS(=O)(=O)c2cccc3nsnc23)CC1 (centres undefined),inactive: -2.98%

row,SMILES,"activity change, negative = cytotoxicity"
1,COc1ccccc1C(=O)N(Cc1ccco1)Cc1ccccc1F,inactive: -14.8%
2,COc1cc(OC)c(NC(=O)CN(C)S(=O)(=O)c2ccc3c(c2)CCCC(=O)N3)cc1Cl,inactive: -7.74%
3,CCc1ccc(C(=O)c2cn(CC(=O)Nc3cccc(C)c3C)c3nc(C)ccc3c2=O)cc1,inactive: 3.37%
4,COc1cccc(OCc2cc(=O)n3cc(C)sc3n2)c1,inactive: 1.45%
5,CCOc1ccc(OCC)c(-n2cnnn2)c1,inactive: -2.43%
6,Cc1c(NC(=O)Nc2ccc(Cl)c(C(F)(F)F)c2)c(=O)n(-c2ccccc2)n1C,inactive: -12.7%
7,Fc1ccccc1N1CCN(c2ncnc3onc(-c4cccc(Cl)c4)c23)CC1,inactive: -19.9%
8,COc1ccc(-n2c(SCC(=O)NC3CCCCC3)nc3c([nH]c4ccccc43)c2=O)cc1,inactive: 11%
9,COc1ccc(-c2cc3c(=O)n(CC(=O)Nc4cc(C)ccc4C)ccn3n2)cc1,inactive: -3.68%
10,Cc1cccn2c(=O)cc(COc3ccc(NC(=O)C(C)Oc4ccccc4)cc3)nc12 (centres undefined),inactive: -11.3%
11,NS(=O)(=O)c1ccc(NC(=O)CN2CCN(c3ccc(F)cc3)CC2)cc1,inactive: 0.364%
12,CCN(CC)CCCNC(=O)C(=O)Nc1ccc2nc3n(c(=O)c2c1)CCCCC3,inactive: 16.5%
13,Cc1ccc(Cn2ccnc2SCC(=O)Nc2ccc3c(c2)OCCO3)cc1,inactive: -2.07%
14,COc1ccc(/C=C/C(=O)Nc2ccc(Cl)cc2Cl)cc1,inactive: -3.18%
15,CC(=O)Nc1cccc(NC(=O)CSc2nccn2Cc2ccco2)c1,inactive: -2.29%
16,Cc1ccc(CNC(=O)c2cccc(NC(=O)N3CCSc4ncccc43)c2)cc1,inactive: -18.3%
17,Cc1ccc(S(=O)(=O)C(CNC(=O)COc2ccc(Cl)cc2)c2ccco2)cc1 (centres undefined),inactive: -25.2%
18,Cc1cc(C)cc(NC(=O)CCCc2nnc3n(CC(C)C)c(=O)c4sccc4n23)c1,inactive: 7.85%
19,CCOc1cc(C2CC(=O)Nc3c2c(=O)nc(SCc2cccc(Cl)c2)n3C)ccc1O (centres undefined),inactive: -13.9%
20,Cc1ccccc1CNC(=O)c1cc2cccc3c2n1CC(C)S3 (centres undefined),inactive: 2.46%
21,O=C(NCCCO)C(=O)Nc1c2c(nn1-c1ccccc1)CSC2,inactive: -6.46%
22,COc1cccc(CNC(=O)C2CCN(C(=O)c3sccc3-n3cccc3)CC2)c1,inactive: -1.8%
23,CCC(CC)C(=O)NCc1nc2cccnc2n1Cc1ccc(F)cc1,inactive: 17.9%
24,CCCN(CCC)C(=O)c1cn(CC)c2ccc(S(=O)(=O)N3CCCCC3)cc2c1=O,inactive: 1.03%
